Results published in paper PMC10692916, “Protein arginine N-methyltransferase 2 plays a noncatalytic role in the histone methylation activity of PRMT1” (The Journal of Biological Chemistry, 2023).

Molecular target: the molecule itself
Assay: native gel or EMSA; mCer-PRMT1 and mCit-PRMT2, 1 uM each, alone or mixed, 1 h at 37 °C in methylation buffer without SAH or H3 peptide; 4-20% native PAGE, fluorescence imaging

B1: mCer-PRMT1 (mCerulean fusion of PRMT1) (enzyme)
chain: not shown
notes: PRMT1, human, […] printed for PRMT1 in the same sentence; cloned in pET28a(+); also called mCerulean-PRMT1; source: E. coli Rosetta (DE3), purified (Ni-NTA, Superdex 200 SEC)
  binding result: binds
